Out of some 360,000 compounds screened, about 270 (0.075%) were called active. This list was built around the results that the source calls inconclusive (neither active nor inactive); the mix of calls is not that of the screen. Calls follow the shape of the dose curve; as a rule, active = well fitted activation curve with a large enough effect; inconclusive = small, poorly fitted or top-dose-only effect; inactive = no such curve, though single readings can be large or run the other way. Potencies of inconclusive entries are left out as doubtful fits.
What follows are molecules tested against Rap guanine nucleotide exchange factor 3 (Homo sapiens) (UniProt O95398) (assay: qHTS for Agonist of cAMP-regulated guanine nucleotide exchange factor 3 (EPAC1): primary screen). Conditions: biochemical assay; activation: at 154 µM (top of the series), 100% = response to 6.5 mM cAMP.
Procedure, shortened: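 EPAC1 100 nM, Rap1B–BODIPY-GDP 250 nM, unlabeled GDP 50 uM; compound titration; 5 min RT; kinetic read ex480/em540 at 5-min intervals ×30 min; data normalized to 6.5 mM cAMP agonist control.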
Also: nearly all actives have a fitted effect of over 60% in size.
Potency is read from the fitted curve at half-maximal effect; tags tell the direction and shape of the fitted curve.

UniProt O95398, sequence (O95398 whole entry, looked up): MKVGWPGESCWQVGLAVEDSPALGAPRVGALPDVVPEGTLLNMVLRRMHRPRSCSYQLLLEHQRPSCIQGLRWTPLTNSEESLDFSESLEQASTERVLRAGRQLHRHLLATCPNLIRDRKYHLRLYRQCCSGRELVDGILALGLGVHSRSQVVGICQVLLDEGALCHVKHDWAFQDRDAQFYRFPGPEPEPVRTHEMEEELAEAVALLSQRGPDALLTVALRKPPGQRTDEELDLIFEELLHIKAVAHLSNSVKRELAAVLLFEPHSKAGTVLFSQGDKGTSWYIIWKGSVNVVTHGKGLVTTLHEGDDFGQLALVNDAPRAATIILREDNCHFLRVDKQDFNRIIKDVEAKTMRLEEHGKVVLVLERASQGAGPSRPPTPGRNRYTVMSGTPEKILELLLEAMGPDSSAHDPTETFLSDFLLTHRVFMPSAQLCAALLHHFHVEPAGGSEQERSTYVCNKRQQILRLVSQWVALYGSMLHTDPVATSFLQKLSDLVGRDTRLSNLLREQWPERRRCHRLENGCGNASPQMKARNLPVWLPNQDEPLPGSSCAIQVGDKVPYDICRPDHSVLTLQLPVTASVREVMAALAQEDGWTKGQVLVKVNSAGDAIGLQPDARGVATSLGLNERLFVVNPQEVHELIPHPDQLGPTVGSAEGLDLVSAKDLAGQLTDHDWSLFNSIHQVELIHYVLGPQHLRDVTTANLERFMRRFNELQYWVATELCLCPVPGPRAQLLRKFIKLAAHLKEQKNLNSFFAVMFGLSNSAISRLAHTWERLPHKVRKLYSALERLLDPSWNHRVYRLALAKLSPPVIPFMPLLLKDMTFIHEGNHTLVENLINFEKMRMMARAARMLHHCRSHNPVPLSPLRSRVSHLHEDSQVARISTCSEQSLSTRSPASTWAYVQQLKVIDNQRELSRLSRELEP

Row | Structure (SMILES) | Potency | activation
1 | O=C(/C=C/[C@H]1O[C@@H](n2ccc(=O)[nH]c2=O)[C@H](O)[C@@H]1O)N1CCN(CCc2ccccc2)CC1 | inconclusive [activator, full curve, poor fit] | –
2 | CC(=Nc1ccc(C)cc1)c1sc2ccccc2c1O | inconclusive [activator, single point] | –
3 | O=C(Nc1cccc(/C=C/c2ccccn2)c1)c1ccc(-n2cncn2)c([N+](=O)[O-])c1 | inconclusive [activator, single point] | –
4 | C=CCn1c(C)c(/C=C/c2cc[n+](C)cc2)c2ccccc21 | inconclusive [activator, single point] | –
5 | Fc1ccc(C2=NN(c3ccccc3)C(c3ccco3)C2)cc1 (stereo unspecified) | inactive | –
6 | COc1cccc(C(O)c2nc(-c3cccc(C(C)C)c3)cs2)c1 (stereo unspecified) | inactive | –
7 | COc1ccccc1Nc1nc(-c2cccc(N3C(=O)c4ccccc4C3=O)c2)cs1 | inactive | –
8 | CN1CCC2(CC1)C1CN(C)CC=C1C(C#N)=C(N)C2(C#N)C#N (stereo unspecified) | inconclusive [activator, single point] | –
9 | Cn1c(=O)c2c(SCC(=O)NCc3ccco3)nc(-c3ccccc3Cl)nc2n(C)c1=O | inactive | –
10 | CCN1C/C(=C/c2ccc(N3CCOCC3)cc2)C(=O)/C(=C/c2ccc(N3CCOCC3)cc2)C1 | active: 63.1 µM | –
11 | COc1ccccc1OCC(=O)Nc1cc(C(F)(F)F)ccc1-n1cncn1 | inconclusive [activator, single point] | –
12 | CCOC(=O)[C@H]1[C@H]2COc3ccc(C)cc3[C@@H]2N2C(=O)c3ccc(C)cc3NC(=O)[C@@]12C | inconclusive [activator, single point] | –
13 | Cc1ccsc1C(=O)OCC(=O)NCCNC(=O)COC(=O)c1sccc1C | inconclusive [activator, single point] | –
14 | CCN(CC)CCCC(C)n1c2nc(=O)[nH]c(=O)c-2nc2cc(Cl)ccc21 (stereo unspecified) | inconclusive [activator, partial curve, poor fit] | –
15 | COc1ccc(NC(=O)c2nn(C)c(C(=O)Nc3ccc(OC)cc3)c2[N+](=O)[O-])cc1 | inconclusive [activator, single point] | –
16 | CC(C)n1ncc2c(C(=O)NCCc3ccc(F)cc3)cc(C3CC3)nc21 | inconclusive [activator, full curve] | –
17 | CC1(C)C[C@H]2C3=CCC4[C@@]5(C)CC[C@H](O)[C@](C)(CO)C5CC[C@@]4(C)[C@]3(C)CC[C@@]2(C)[C@H](O)[C@@H]1O (stereo partly specified) | inconclusive [activator, single point] | –
18 | O=C(OCc1cc(=O)n2c(n1)sc1ccccc12)c1ccc(O)cc1 | inactive | –
19 | Cc1ccc(Nc2nnc(SCC(=O)NC3CC3)s2)cc1 | inactive | –
20 | S=C1NC2=C(CCC/C2=C\c2ccc(Cl)cc2)C(c2ccc(Cl)cc2)N1 (stereo unspecified) | inactive | –
21 | CC1CCc2sc(C(=O)NNS(=O)(=O)c3ccc(F)c(F)c3F)cc2C1 (stereo unspecified) | inconclusive [activator, partial curve, poor fit] | –
22 | S=c1[nH]nc(-c2cc(-c3ccccc3)n[nH]2)n1/N=C/c1cccc(Cl)c1 | active: 89.1 µM | –

Row | Structure (SMILES) | Potency | activation
23 | CCCc1ccc2oc(C(=O)NCCc3nc(C(=O)OCC)cs3)c(C)c2c1 | inconclusive [activator, partial curve] | –
24 | CCOC(=O)c1ccccc1NC(=O)COC(=O)C(Cc1c[nH]c2ccccc12)NC(C)=O (stereo unspecified) | active: 112 µM | –
25 | Cc1c(C(=O)N2CCCCC2)oc2ccc(Br)cc12 | inconclusive [activator, single point] | –
26 | O=c1/c(=C/c2ccc([N+](=O)[O-])cc2)sc2n1CCCN=2 | inactive | –
27 | CC1(c2ccccc2)CC(C)(C)N2C(=O)C3(C(C#N)=C(N)Oc4cc(O)ccc43)c3cccc1c32 (stereo unspecified) | inconclusive [activator, single point] | –
28 | N#Cc1c(N)oc(-c2ccc3c(c2)OCO3)c1-c1ccc2c(c1)OCO2 | inconclusive [activator, partial curve] | –
29 | CCN(CC)c1ccc(/C=C(\C#N)C(=O)NCc2ccccc2)cc1 | active: 100 µM | –
30 | CCCN1C(=O)S/C(=C/c2ccc(N3CCOCC3)o2)C1=O | active: 79.4 µM | –
31 | CC(C)CN(C(=O)COC(=O)c1cnccn1)c1c(N)n(Cc2ccccc2)c(=O)[nH]c1=O | inconclusive [activator, partial curve] | –
32 | CCOC(=O)[C@]12CCCC=C1N(Cc1cccc3ccccc13)C(=O)[C@H](CC(=O)N1CCCC1)C2 | inactive | –
33 | COc1cc(OC)c(-c2c3cc(O)c(=O)cc-3oc3cc(O)c(O)cc23)cc1OC | active: 100 µM | –
34 | O=C(/C=C/c1ccc(N2CCOCC2)cc1)c1ccccc1 | inconclusive [activator, partial curve] | –
35 | Cc1cnc(CNC(=O)c2csc([C@H]3C[C@H](O)[C@@H](CO)O3)n2)cn1 | inactive | –
36 | Cc1nnc(NC(=O)CN2C(=O)NC3(CCCC3)C2=O)s1 | – | inconclusive: 37.5% [activator]
37 | CC(C)c1ccc2nc3sc(C(=O)N4CCc5ccccc5C4)c(N)c3cc2c1 | inconclusive [activator, partial curve] | –
38 | O=C(O)CSc1cc(C(=O)c2ccccc2O)cn2c(=O)c3c4c(sc3nc12)CCCC4 | inconclusive [activator, partial curve] | –
39 | Fc1ccc(Cn2nnnc2C(c2cccs2)N2CCCCCC2)cc1 (stereo unspecified) | inconclusive [activator, partial curve] | –
40 | CCc1nnc(NC(=O)c2ccc(-c3cccc(C(F)(F)F)c3)o2)s1 | inconclusive [activator, single point] | –
41 | N#C/C(=C1/CCCCCN1)c1nc2ccccc2s1 | inconclusive [activator, partial curve] | –
42 | Nc1nnc(SCC(=O)NC2CCCCCCC2)s1 | inactive | –
43 | CCC(=C/c1sc2ccc3ccccc3c2[n+]1C)/C=C1\Sc2ccc3ccccc3c2N1C | inconclusive [activator, partial curve] | –
44 | CC1CN(C(=O)c2ccc(-c3ccccc3Cl)o2)CC(C)O1 (stereo unspecified) | inconclusive [activator, single point] | –

Row | Structure (SMILES) | Potency | activation
45 | COc1cc(OC)c(C=NNC(=S)NC23CC4CC(CC(C4)C2)C3)c(OC)c1 | inactive | –
46 | O=C(Nc1nc(-c2ccc(F)cc2)cs1)C1CCN(C(=O)c2ccc(F)cc2)CC1 | inconclusive [activator, partial curve, poor fit] | –
47 | S=C1NC(c2cccs2)=CC(c2ccc(Br)cc2)N1 (stereo unspecified) | inactive | –
48 | CCCn1c(N)c(C(=O)CSc2n[nH]c(-c3ccc(C)cc3)n2)c(=O)[nH]c1=O | inconclusive [activator, single point] | –
49 | O=[N+]([O-])c1cc(C(F)(F)F)ccc1NCCc1c[nH]c2ccc(O)cc12 | inconclusive [activator, partial curve] | –
50 | CC(C)(C)c1ccc(C(=O)N/C(=C\c2cccs2)C(=O)NCc2ccco2)cc1 | inconclusive [activator, partial curve] | –
51 | Cc1ccn2c(=O)c(NC(=O)c3ccc(Br)o3)c(C)nc2c1 | inconclusive [activator, single point] | –
52 | O=C(NCCC(=O)N(CCc1ccccc1)Cc1ccccc1)c1ccccc1Cl | inconclusive [activator, partial curve, poor fit] | –
53 | COc1ccccc1C(=O)NC(=O)Cn1nc(C)c([N+](=O)[O-])c1C | inconclusive [activator, single point] | –
54 | Cc1ccc(C2CC(c3cccs3)=NN2C(=O)CSc2nc(=O)n3cc(C)ccc3n2)cc1 (stereo unspecified) | active: 112 µM | –
55 | COc1cccc(-c2cnc(NCc3cc(Cl)ccc3O)n2C)c1 | inconclusive [activator, partial curve] | –
56 | CN(Cc1ccc(C(C)(C)C)cc1)C(=O)c1ccc2c(=O)n3c(nc2c1)CCC3 | inconclusive [activator, full curve, poor fit] | –
57 | CC(=O)N(CCc1ccccc1)c1ccc2c(c1)C1CC2CCN1C(=O)OCc1ccccc1 (stereo unspecified) | inactive | –
58 | O=C(CNC(=O)c1sc2ccccc2c1Cl)Nc1ccccc1F | inconclusive [activator, single point] | –
59 | COc1cccc(C(C(=O)NC2CCCCC2)N(C(=O)c2ccco2)c2ccccc2OC)c1 (stereo unspecified) | inactive | –
60 | Cc1ccc(OCCC(=O)OCC(=O)NNC(=O)c2ccccc2)cc1 | inconclusive [activator, single point] | –
61 | NC(=O)c1ccccc1NCC(=O)c1ccc(F)cc1 | inconclusive [activator, partial curve] | –
62 | CC(=O)C(=Nc1ccccc1Cl)NNc1ccc(Cl)cc1 | inactive | –
63 | CN(CCOc1ccc(Cl)cc1)C(=O)c1cc([N+](=O)[O-])ccc1N1CCOCC1 | inconclusive [activator, partial curve] | –
64 | CCN(CC)c1ccc(NC(=O)CCCOc2cccc(C)c2)cc1 | inactive | –
65 | Cc1ccc(NC(=O)CN(C)C(=O)COC(=O)C2=COCCO2)cc1 | inconclusive [activator, single point] | –
66 | CCn1nnnc1SCC(=O)N1N=C(c2cccs2)CC1c1cccs1 (stereo unspecified) | inconclusive [activator, full curve, poor fit] | –

Source: PubChem BioAssay AID720707 (National Center for Advancing Translational Sciences (NCATS), 2013)
